Measurements: PubChem BioAssay AID1508642 (National Center for Advancing Translational Sciences (NCATS), 2021)
Among all 43,000 compounds or so, about 200 (0.47%) were called active. Roughly 12% stayed inconclusive and do not appear here. Calls follow the shape of the dose curve; as a rule, active = well fitted cell-killing curve with a large enough effect; inconclusive = small, poorly fitted or top-dose-only effect, or effect the other way; inactive = flat fitted curve, though single readings scatter. This is one part of the list.

Test: Cell viability qHTS assay in S16 Pmp22-F2sN cells; also: nearly all actives have a fitted effect of over 65% in size
Conditions: S16 Pmp22-F2sN Schwann cells viability, CellTiter-Glo, 24 h; series mostly up to 57.5 µM; activity change, negative = cytotoxicity: at the top concentration
Procedure, shortened: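 S16 Pmp22-F2sN Schwann cells (500-1,000/well) in phenol-red-free DMEM with 10% FBS received 23 nL compound by pin tool for 24 h at 37 °C. Viability was then read as CellTiter-Glo luminescence after 15 min at room temperature.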
% is scaled to controls: 0 for no effect and ±100 for the full control effect.

Row | Structure (SMILES) | activity change, negative = cytotoxicity
1 | CCN1CCN(CCCNC(=O)c2cnn(-c3ccccc3Cl)c2C2CCN(C(=O)OC(C)(C)C)CC2)CC1 | inactive: 0.102%
2 | Cc1nn(C)c2c1c(-c1ccccc1)cc(=O)n2Cc1ccccc1C#N | inactive: -12.2%
3 | Cc1cc(OCC(=O)Nc2c(C(=O)c3ccccc3)oc3ccccc23)cc(C)c1Cl | inactive: 8.47%
4 | O=C(c1ccccc1)c1cn(Cc2ccc(F)cc2)c2ccccc2c1=O | inactive: -19.2%
5 | CCCCc1nn2c(=O)cc(COC(=O)c3cccc(Cl)c3)nc2s1 | inactive: -27.1%
6 | Cc1cccc(C)c1NC(=O)Cn1nnc(C(=O)Nc2c(C)cccc2C)c1N | inactive: -3.05%
7 | Cc1cc(F)ccc1NC(=O)C1CCN(C(=O)c2cnn(-c3ccccc3)c2-n2cccc2)CC1 | inactive: -3.08%
8 | CC(=O)n1nc(-c2cccnc2)nc1NCc1ccc(F)cc1 | inactive: 1.14%
9 | CCOc1ccc(NC(=O)c2c(NCc3ccc(C)o3)sc3c2CCCCC3)cc1 | inactive: -14.6%
10 | CCn1cc(C(=O)OCC(=O)Nc2cc(OC)cc(OC)c2)c(=O)c2ccc(C)nc21 | inactive: 0.22%
11 | O=C1c2oc3ccccc3c(=O)c2C(c2ccc(O)cc2)N1Cc1ccc2c(c1)OCO2 (stereo not given) | inactive: 16.2%
12 | O=C(c1ccc(Cl)cc1)N1CCC(c2nc3ccccc3o2)CC1 | inactive: -0.689%
13 | COc1ccccc1-c1noc(-c2ccc(N3CCN(C)CC3)c([N+](=O)[O-])c2)n1 | inactive: -6.29%
14 | Cc1ccc(-c2ccc(=O)n(CC(=O)NCCc3ccc(Cl)cc3)n2)cc1 | inactive: -5.22%
15 | Cc1ccc(CSC2=Nc3ccccc3C3=NC(CC(=O)NCc4cccs4)C(=O)N23)c(C)c1 (stereo not given) | inactive: 5.35%
16 | O=C(Nc1ccc2nc(SCCOc3ccccc3)sc2c1)c1ccccc1F | inactive: 17.4%
17 | CCOC(=O)c1c(C)c(-c2ccccc2)n(CC(=O)Nc2ccc(OCC)cc2)c1C | inactive: 8.69%
18 | COc1ccc(-c2cn3c(n2)sc2cc(C(=O)Nc4cccc(SC)c4)ccc23)cc1 | inactive: 13.5%
19 | COc1cccc2c1cc1c(=O)n(CC(=O)N3CCN(c4cccc(Cl)c4)CC3)nc(C)n12 | inactive: 13.2%
20 | COC(=O)C(CCSC)NC(=O)Cn1ncc2c([nH]c3ccccc32)c1=O (stereo not given) | inactive: 4.3%
21 | COc1ccc(NC(=O)c2c(NCc3cccs3)sc3c2CCCC3)c(OC)c1 | inactive: -1.38%
22 | CCCOc1ccc(CNC(=O)c2ccc3c(c2)N(Cc2ccccc2)CCS3)cc1 | inactive: -8.98%
23 | Cc1ccc(NC(=O)Nc2cccc(C)n2)cc1 | inactive: 1.27%
24 | CCOc1ccc(C2CC(=O)NC(NC(=O)c3cccc(Cl)c3)=N2)cc1 (stereo not given) | inactive: -30%

Row | Structure (SMILES) | activity change, negative = cytotoxicity
25 | Cc1ccc(CCNC(=O)CN(c2cc(C)cc(C)c2)S(=O)(=O)c2c(C)noc2C)cc1 | inactive: 1.21%
26 | COc1ccccc1CNC(=O)CCCn1c(=O)c2ccccc2n(Cc2ccc(F)cc2)c1=O | inactive: -4.58%
27 | COc1ccccc1Nc1nc(-c2ccc(F)cc2)c2c(n1)-c1ccccc1OC2 | inactive: -4%
28 | COc1cccc(-n2ccn(CC(=O)NCc3ccc(C)cc3)c(=O)c2=O)c1 | inactive: -2.49%
29 | COc1ccc(N(CC(=O)N2CCN(c3ccccc3)CC2)S(=O)(=O)c2c(C)nn(C)c2C)cc1 | inactive: 1.01%
30 | COc1ccc(-c2cc3nc(C)c(CCC(=O)NCc4ccccc4Cl)c(C)n3n2)c(OC)c1 | inactive: -8.06%
31 | Cc1ccc(Nc2ccc3cc(S(=O)(=O)N4CCCCC4)ccc3n2)cc1F | inactive: -18.4%
32 | COc1ccc(C)cc1NC(=O)Cn1c(=O)oc2cc(S(=O)(=O)N3CCCCC3)ccc21 | inactive: 8.99%
33 | CCOC(=O)c1ccc(NC(=O)CSc2nc(-c3ccc(OC)cc3)cc(C(F)(F)F)c2C#N)cc1 | inactive: 8.28%
34 | CCn1cc2nc(SCC(=O)Nc3ccc(OC)c(Cl)c3)n(Cc3ccc(OC)cc3)c(=O)c2n1 | inactive: 9.44%
35 | N#Cc1nc(COc2ccccc2Cl)oc1NCCc1ccccc1 | inactive: -3.19%
36 | CCc1cccc(C)c1NC(=O)C1CCN(S(=O)(=O)c2c(C)noc2/C=C/c2c(C)cc(C)cc2C)CC1 | inactive: 2.21%
37 | CCOc1ccc(NC(=O)NCCN2CCN(c3cccc(C)c3C)CC2)cc1 | inactive: -17%
38 | CC(=O)c1ccc(NC(=O)c2cn(-c3ccccc3)nc2-c2ccc(Br)cc2)cc1 | inactive: 13.5%
39 | O=C(CCC1CCCC1)N1CCc2c([nH]c3ccccc23)C1c1ccc(F)cc1 (stereo not given) | inactive: 6.01%
40 | COc1ccc(OC)c(NC(=O)Cn2c(=O)n(-c3cccc(C)c3)c(=O)c3c2c2cc(C)ccc2n3C)c1 | inactive: 9.53%
41 | Cc1ccc(NC(=O)c2c(NC(=O)c3ccc(F)cc3)sc3c2CCCC3)cc1C | inactive: 20.5%
42 | CCOc1ccc(-n2c(SCC(=O)Nc3cc(C)on3)nc3c([nH]c4ccccc43)c2=O)cc1 | inactive: 1.88%
43 | CCc1ccccc1N(C)C(=O)Cn1cnc2sc(C)c(S(=O)(=O)N3CCC(C)CC3)c2c1=O | inactive: -0.237%
44 | COc1cccc(CNC(=O)CCCn2nc(C)c3sc4ccccc4c3c2=O)c1 | inactive: 11.2%
45 | CCOC(=O)c1c(C)oc2nc(C)nc(N3CCN(c4cc(Cl)ccc4C)CC3)c12 | inactive: 18.6%
46 | CCOC(=O)c1cc(OC(=O)c2cc(OC)c(OC)c(OC)c2)n(-c2ccccc2)n1 | inactive: 6.82%
47 | CCn1c(C(=O)Nc2c(C)cccc2C)cc2sc(Cl)cc21 | inactive: -2.27%
48 | COc1cccc(NC(=O)N(Cc2c[nH]c3ccccc23)C2CCCCCC2)c1 | inactive: -26.3%

Row | Structure (SMILES) | activity change, negative = cytotoxicity
49 | CN(C(=O)c1cc2c(Cl)nc3ccccc3c2s1)c1cccc(C(F)(F)F)c1 | inactive: 7.52%
50 | Cc1ccc(NC(=O)c2oc3ccc(S(=O)(=O)N4CCCCCC4)cc3c2C)c(C)c1 | inactive: 27.8%
51 | COc1cccc(-c2noc(COc3ccc(C(C)(C)C)cc3)n2)c1 | inactive: -0.223%
52 | CCC1CCc2nc3sc(C(=O)Nc4ccc(C)cc4C)c(N)c3cc2C1 (stereo not given) | inactive: 6.87%
53 | COC(=O)Cn1ccc2cc(S(=O)(=O)N3CCCCCC3)ccc21 | inactive: -4.89%
54 | CCOC(=O)N1CCC2(CC1)OC(=O)C(C)=C2C(=O)NCc1ccc(C)cc1 | inactive: 5.75%
55 | CCNC(=O)c1ccc(CSc2nc3cccnc3n2Cc2ccc(OC)cc2)cc1 | inactive: -7.9%
56 | COC(=O)c1ccc(NC(=O)Cn2c(-c3nonc3N)nc3ccccc32)cc1 | inactive: 20.8%
57 | CCCc1cnc2c(c1SCC(=O)Nc1c(C)cc(C)cc1C)c(=O)n(C)c(=O)n2C | inactive: 0.587%
58 | Cc1nn(CC(=O)N2CCC(C)CC2)c(=O)c2cc3occc3n12 | inactive: 10.4%
59 | Cc1cccc(-c2nc(CN3CCCC(C(=O)NCc4ccc(Cl)cc4)C3)c(C)o2)c1 (stereo not given) | inactive: -4.31%
60 | CCN(C(=O)CN1C(=O)COc2ccc(S(=O)(=O)N3CCOCC3)cc21)c1cccc(C)c1 | inactive: 8.31%
61 | O=C(NCCc1csc(-c2cccc(F)c2)n1)c1ccccc1C(F)(F)F | inactive: 8.56%
62 | N=c1n(CCN2CCCCC2)c2ccccc2n1CC(O)COc1ccccc1 (stereo not given) | inactive: -20.7%
63 | COc1ccc(N2CCN(C(=O)CCC(=O)NNc3nc4ccccc4c4nc(C)nn34)CC2)cc1 | inactive: 0.641%
64 | CSc1ccc(C(=O)Nc2ccc(-c3nc4ccccc4s3)c(O)c2)cc1 | inactive: 1.47%
65 | CCC(=O)N1CCc2cc(S(=O)(=O)CCC(=O)N3CCN(c4cccc(Cl)c4)CC3)ccc21 | inactive: -3.19%
66 | COc1ccc2c(c1)c1c(c(=O)n(Cc3ccccc3)c(=O)n1CC(=O)NCc1ccc(C)cc1)n2C | inactive: -6.55%
67 | Cc1cc(C)cc(NC(=O)c2oc3ccc4c(c3c2C)C(=O)CC(C)(C)O4)c1 | inactive: 15.5%
68 | COc1cc(OC)c(NC(=O)Cn2c(=O)cc(C)c3c(C)nn(-c4ccc(C)cc4)c32)cc1Cl | inactive: 11.5%
69 | CSc1ccc(-c2nc3c(C)cccn3c2Nc2ccc3c(c2)OCCO3)cc1 | inactive: 0.254%
70 | Cc1ccc(OCc2nnc(SCC(=O)Nc3ccccc3C(C)C)o2)cc1 | inactive: -1.5%
71 | Cc1ccc(-c2c(C(=O)NCc3ccc(F)cc3)oc(=O)c3ccccc23)cc1 | inactive: 20.1%
72 | Cn1nc(C(=O)NCc2ccc(F)cc2)c2c1-c1ccccc1SC2 | inactive: -4.6%

Row | Structure (SMILES) | activity change, negative = cytotoxicity
73 | CC1CCN(C(=O)CN2c3ccc(C(C)C)cc3-c3ccccc3S2(=O)=O)CC1 | inactive: -1.72%
74 | Cc1cc(-c2ccccc2)n2nc(-c3cccc(Br)c3)cc2n1 | inactive: -1.12%
75 | CSCCC(NS(=O)(=O)c1ccc2c(c1)oc(=O)n2C)C(=O)NCc1ccccc1 (stereo not given) | inactive: 11.7%
76 | Cc1ccc2cccc(NC(=O)c3ccc(-c4cccc(Cl)c4Cl)o3)c2n1 | inactive: 1.31%
77 | COc1ccc(CCCc2nnc(SCC(=O)Nc3ccc(F)cc3)o2)cc1C | inactive: 3.87%
78 | CC(=O)c1cccc(NC(=O)c2oc(=O)c3ccccc3c2-c2ccccc2)c1 | inactive: 21.5%
79 | CC(C)CN(CCNC(=O)c1cn(C)c2ccc(S(=O)(=O)N3CCOCC3)cc2c1=O)CC(C)C | inactive: -28.5%
80 | O=C(Cn1cnc2onc(-c3ccc(F)cc3)c2c1=O)Nc1cccc(C(F)(F)F)c1 | inactive: -12.3%
81 | CS(=O)(=O)N(CC(=O)NCCSCc1ccccc1)c1cc(C(F)(F)F)ccc1Cl | inactive: 2.71%
82 | COc1ccc(NC(=O)CC2C(=O)N(c3ccccc3)C(=O)N2C2CCCCC2)cc1 (stereo not given) | inactive: 15.5%
83 | CCOC(=O)c1nnn(CC(=O)Nc2cc(C)cc(C)c2)c1C(=O)OCC | inactive: 2.31%
84 | CCOC(=O)c1ccc(NC(=O)c2nc(SC(C)C)ncc2Cl)cc1 | inactive: -9.27%
85 | COc1ccc(CCNS(=O)(=O)c2ccc(N3CCCCS3(=O)=O)cc2)cc1OC | inactive: -5.12%
86 | Cc1nc2c(-c3ccccc3)c(C)nn2c(C)c1CCC(=O)NCc1ccc(Cl)cc1 | inactive: 23.3%
87 | Cc1ccc(CNC(=O)CCCN2C(=O)CCn3nc(-c4cn(C)c5ccccc45)cc32)cc1 | inactive: -3.96%
88 | CCc1ccc(NC(=O)N2c3ccccc3Sc3ccccc32)cc1 | inactive: -0.346%
89 | CCN(Cc1ccccc1)S(=O)(=O)c1ccc2c(c1)CCCN2C(C)=O | inactive: -7.49%
90 | Cc1ccc(C)c(Cn2cnc3c(cnn3-c3ccc(F)cc3)c2=O)c1 | inactive: 5.12%
91 | CCOc1ccc(CNC(=O)Cn2ccc3cc(S(=O)(=O)N4CCCCCC4)ccc32)cc1 | inactive: -12.9%
92 | CCCCOC(=O)c1ccc(NC(=O)CC2NCCNC2=O)cc1 (stereo not given) | inactive: 6.63%
93 | COCCCNC(=O)C1CCC(CNS(=O)(=O)c2ccc(OC)cc2)CC1 (stereo not given) | inactive: 6.05%
94 | Cc1ccc(NC(=O)Cn2c(=O)ccc3cc(S(=O)(=O)N4CCC(C)CC4)ccc32)c(C)c1 | inactive: -1.13%
95 | CCOC(=O)c1cc2c(=O)n3ccccc3nc2n(C)c1=NC(=O)c1c(-c2ccccc2Cl)noc1C | inactive: 10.9%
